# Data taken from PubChem BioAssay AID445 (National Center for Advancing Translational Sciences (NCATS), 2006).
# Screen size: about 110,000 compounds; about 40 (0.04%) were called active. The inconclusive results got no clear call from the source; some entries with a clear call stand among them for comparison. Calls follow the shape of the dose curve; as a rule, active = well fitted curve in the direction sought with a large enough effect in the signal ratio (not every such curve was filed as active); inconclusive = small, poorly fitted or top-dose-only effect, or a change in a side signal; inactive = flat fitted curve, though single readings scatter; the % refers to the signal ratio. A potency beside an inconclusive call is a rough fit, not a confirmed value.
# Assay: IkB Signaling;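 as to IkBa stabilization activation: 0% = basal untreated cells and 100% = reference inhibitor full response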
# Settings: ABC-DLBCL IkBa-CBG/CBR dual luciferase ratio (green luciferase fused to IkBa over red control in OCI-Ly3 lymphoma cells), 4 h; IkBa stabilization activation: at 57.1 µM (top of the series), scaled: untreated 0%, proteasome inhibitor 100% unless noted
# Summary of the method: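 Luminescence ratio of IκBα-fused green versus native red beetle luciferase in OCI-Ly3 cells, 4 h post-doxycycline with compound; red signal alone, scaled from basal (0%) to zero light (-100%), flagged nonspecific or cytotoxic effects.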
# Potency is read from the fitted curve at half-maximal effect.
SMILES,IkBa stabilization activation,Potency
CN1/C(=C\C(=O)CN2C(=O)NC3(CCCCCC3)C2=O)C(C)(C)c2ccccc21,inconclusive: 3.44% [signal inhibitor],
CC(C)c1ccc2oc(-c3ccc(Cl)c(NC(=O)Cc4ccccc4)c3)nc2c1,,"inconclusive: 25.1 µM [signal inhibitor, partial curve]"
CCC1CCc2c(sc(NC(=O)C3c4ccccc4Oc4ccccc43)c2C(=O)OC)C1 (centres undefined),inconclusive: 9.23% [signal inhibitor],
CCOC(=O)N1CCC(NC(=O)c2ccc3c(c2)N(Cc2ccc(Cl)cc2)C(=O)c2ccccc2S3(=O)=O)CC1,inactive: 0.00397%,
O=S1(=O)N=C(Nc2ccc(N3CCOCC3)cc2)c2ccccc21,inactive: -1.17%,
CCc1cccc(C)c1NC(=O)CN1C(=O)c2ccccc2Sc2ncccc21,inactive: -0.666%,
CCCNC(=O)CN1C(=O)c2c(c3ccccc3n2C)C1c1ccc(OC)cc1 (centres undefined),inconclusive: 0.657% [signal inhibitor],
COc1ccc(CNC(=O)c2cc3oc4ccccc4c3n2C)cc1OC,inconclusive: 3.47% [signal inhibitor],
CCC(=O)Nc1ccc2oc(-c3ccccc3Br)nc2c1,inactive: -0.38%,
CCc1ccc(S(=O)(=O)c2nnn3c2nc(N2CCC(C(N)=O)CC2)c2cc(Cl)ccc23)cc1,inconclusive: 7.54% [signal inhibitor],
Cc1c(C(=O)Nc2cccc(C#N)c2)sc2nc3n(c(=O)c12)CCCCC3,inactive: -0.141%,
Cn1c(N2CCCC2)nc2c1c(=O)n(Cc1ccc(F)cc1)c(=O)n2C,inactive: -2.56%,
CCc1ccc(NC(=O)C2CCN(S(=O)(=O)c3c(C)noc3C)CC2)cc1,inconclusive: 1.99% [signal inhibitor],
Cn1c(=O)c2cc(C(=O)Nc3cccc(C#N)c3)sc2c2ccccc21,inconclusive: 9.29% [signal inhibitor],
CCOc1ccc2nc(SCC(=O)c3cccs3)sc2c1,inconclusive: 3.27% [signal inhibitor],
COC(=O)c1ccc(NC(=O)NC(C)c2c(-n3cccc3)sc(C)c2C)cc1 (centres undefined),inconclusive: 3.01% [signal inhibitor],
COc1ccc(C(CC(=O)Nc2nccs2)n2cccc2)cc1 (centres undefined),,"inconclusive: 31.6 µM [signal inhibitor, partial curve]"
NC(=O)c1c(N)sc2c1CCCCC2,inconclusive: 2.86% [signal inhibitor],
CCOc1ccc(NC(=O)c2c(NCc3cccs3)sc3c2CCCCC3)cc1,inconclusive: 2.02% [signal inhibitor],
COC(=O)c1scc(-c2ccccc2)c1S(=O)(=O)Nc1ccc(C)c(Cl)c1,inconclusive: 2.19% [signal inhibitor],
O=C(CSc1ncn(-c2ccccc2)n1)c1cccs1,,"inconclusive: 31.6 µM [signal inhibitor, single point]"
Cc1cccc(OCC(=O)N(Cc2ccc(N(C)C)cc2)Cc2ccco2)c1C,inactive: -0.614%,
Cc1cc(C)nc(Nc2nc3ccccc3[nH]2)n1,inactive: 0.836%,

SMILES,IkBa stabilization activation,Potency
Cc1cc(NC(=O)COC(=O)c2c(C)nn(-c3ccccc3)c2C)no1,inconclusive: 3.3% [signal inhibitor],
Cc1ccnc2nc(NC(=O)c3ccccc3Cl)nn12,,"inconclusive: 31.6 µM [signal inhibitor, single point]"
CCc1ccc(S(=O)(=O)c2nnn3c2nc(NC(C)C)c2cc(Cl)ccc23)cc1,inactive: -0.59%,
Cc1cccc(N(CC(=O)N(C)Cc2ccccc2)S(=O)(=O)c2ccccc2)c1C,inconclusive: 1.32% [signal inhibitor],
O=C(NCCc1ccc(Cl)cc1)c1ccc(CSCc2ccc(Cl)cc2)o1,inconclusive: 1.34% [signal inhibitor],
c1ccc(CN2CCC3(CC2)Nc2ccccc2CO3)cc1,inactive: 1.9%,
Clc1ccccc1-c1nnc(SCc2nc(-c3ccccc3)no2)n1-c1ccccc1,inconclusive: 2.07% [signal inhibitor],
Cc1ccc2nc3c(cc(C(=O)NCc4ccccc4)c(=N)n3CCCn3ccnc3)c(=O)n2c1,inactive: -0.598%,
CCc1ccccc1NC(=O)Cn1c(=O)n(CCc2ccccc2)c(=O)c2ccccc21,inconclusive: 3.56% [signal inhibitor],
O=C(Nc1ccc2nc(SCC(=O)N3CCOCC3)sc2c1)c1cccc(F)c1,inconclusive: 1.45% [signal inhibitor],
O=C(NCc1cccnc1)c1c[nH]c2cc3c(cc2c1=O)OCCO3,inactive: 2.2%,
CCOC(=O)N1CCN(S(=O)(=O)N2CCCC(C(=O)NCc3ccc(OC)cc3OC)C2)CC1 (centres undefined),inconclusive: -0.0422% [signal inhibitor],
Cn1c(C(=O)N2CCC(C(=O)N3CCN(c4ccccc4)CC3)CC2)cc2sccc21,inconclusive: 1.01% [signal inhibitor],
Cc1ccc(CNC(=O)c2c[nH]n3c(=O)c(Cc4ccc(F)cc4Cl)c(C)nc23)cc1,inconclusive: 0.613% [signal inhibitor],
Cc1nnc(N2CCN(c3cccc(C(F)(F)F)c3)CC2)c2c1nnn2Cc1ccccc1,inconclusive: 1.08% [signal inhibitor],
Cc1nc2sc3c(c2c(=O)n1/N=C/c1ccco1)CCCC3,inactive: -0.552%,
Cc1noc2ncnc(NCc3ccc(Cl)cc3)c12,inconclusive: -0.876% [signal inhibitor],
Cc1ccc(-c2cc(NC(=O)C(C)Oc3ccccc3F)on2)cc1 (centres undefined),inconclusive: -3.09% [signal inhibitor],
Cc1cc(NC(=O)C2CCCN(S(=O)(=O)c3cn(C)cn3)C2)ccc1Br (centres undefined),inconclusive: 1.65% [signal inhibitor],
COc1ccc(NC(=O)C(=O)NCc2ccco2)c(OC)c1,,"inconclusive: 20 µM [signal inhibitor, partial curve]"
CC(C)Oc1ccc(CNC(=O)c2cccc(NC(=O)c3nsc4ccccc34)c2)cc1,inactive: 0.171%,
COc1ccc(Nc2c3c(nc4ccc(NC(=O)c5cc(Cl)ccc5OC)cc24)CCCC3)cc1OC,,inconclusive: 39.8 µM [signal inhibitor]
COCCn1c(=O)c(CCc2ccccc2)nc2cnc(Nc3ccccc3)nc21,"inactive: -0.823% [at 11.4 µM, scaled: untreated 0%, proteasome inhibitor 100%]",

SMILES,IkBa stabilization activation,Potency
COc1ccc(OC)c(CNC(=O)C2CCN(S(=O)(=O)c3ccc4[nH]c(=O)oc4c3)CC2)c1,inconclusive: 1.09% [signal inhibitor],
Cc1ccc(NCc2nnc(SCC(=O)Nc3ncc(C)s3)n2CC2CCCO2)c(C)c1 (centres undefined),inconclusive: 4.36% [signal inhibitor],
O=C(Nc1nc(-c2ccco2)c(-c2ccco2)s1)C1CC(=O)N(c2ccc3c(c2)OCCO3)C1 (centres undefined),inconclusive: 4.46% [signal activator],
Oc1c(C(c2ccc(Cl)cc2Cl)N2CCN(Cc3ccccc3)CC2)sc2nc(-c3ccco3)nn12 (centres undefined),inconclusive: 3.33% [signal inhibitor],
Cc1ccc(CNC(=O)Cn2ccn(-c3ccc(F)c(F)c3)c(=O)c2=O)cc1,inactive: -0.459%,
O=C=Nc1ccc(Cl)c(Cl)c1,inconclusive: 0.471% [signal inhibitor],
CCc1ccc2oc(-c3cccc(NC(=O)c4cccnc4)c3)nc2c1,inactive: 12.1%,
O=C1OC2(c3ccc(O)cc3Oc3cc(O)ccc32)c2c1c(-c1ccccc1)c(-c1ccccc1)c(-c1ccccc1)c2-c1ccccc1,"inactive: -1.69% [at 11.4 µM, scaled: untreated 0%, proteasome inhibitor 100%]",
CCC(Sc1nc2ccncc2[nH]1)C(=O)Nc1cc(C)ccc1C (centres undefined),inactive: 0.739%,
CCCn1c(=N)c(C(=O)NCc2ccco2)cc2c(=O)n3cc(C)ccc3nc21,inactive: -1.79%,
COCCNC(=O)CCCn1c(SCc2ccccc2C)nc2c(sc3ccccc32)c1=O,inconclusive: 8.79% [signal inhibitor],
CCn1cc(/C=C(\NC(=O)c2ccccc2Cl)C(=O)NCCCn2ccnc2)c2ccccc21,inconclusive: 3.32% [signal inhibitor],
Cc1ccc(C2N3CC4(C)CN2CC(c2ccccc2)(C3)C4=O)cc1 (centres undefined),inconclusive: 1.63% [signal inhibitor],
Cc1ccc(CNC(=O)c2ccc(N3Cc4ccccc4Oc4ncccc43)s2)cc1,inconclusive: 3.76% [signal inhibitor],
CCOc1ccc(C(=O)Nc2ccc(C(=O)OCc3cc(=O)n4c(C)csc4n3)cc2)cc1,inconclusive: -0.565% [signal inhibitor],
O=C(c1ccccc1C(=O)N1CCN(c2ccccc2)CC1)N1CCN(c2ccccc2)CC1,inconclusive: 13.2% [signal inhibitor],
CC1CCN(C(=O)c2cc(-c3ccc(Cl)c(Cl)c3)on2)CC1,,"inconclusive: 0.0398 µM [signal inhibitor, full curve, poor fit]"
Cc1ccc2c(c1)c1c(c(=O)n(-c3cccc(Cl)c3)c(=O)n1CC(N)=O)n2C,inactive: 1.83%,
Cc1ccc(NC(=O)CN2C(=O)c3ccccc3Sc3ccc(C(=O)N4CCOCC4)cc32)cc1C,inconclusive: 9.36% [signal inhibitor],
CC1CCN(C(=O)c2ccc(C(=O)N3CCC(C)CC3)cc2)CC1,inconclusive: 6.22% [signal activator],
Oc1ccccc1Cn1c(-c2ccccc2O)nc2ccccc21,inconclusive: -0.75% [signal inhibitor],
Cc1ccccc1OCCSc1nc2ccc(NC(=O)c3ccco3)cc2s1,inconclusive: 2.17% [signal inhibitor],
O=C(CSc1nc(=O)n(Cc2ccccn2)c2c1CCC2)Nc1cccc(Cl)c1,inconclusive: 2.41% [signal inhibitor],
